Experimental data: article PMC6919601, “Identification of Plasmodium dipeptidyl aminopeptidase allosteric inhibitors by high throughput screening” (PLoS ONE, 2019)
Hit rate of the full screen: of about 110,000 compounds, about 230 (0.21%) showed an effect of 50% or more. The list shows a part of the results.

Target: DPAP1 (Plasmodium falciparum, UniProt Q8IIJ9)
Test: primary screen, percent inhibition; read by cleavage of a fluorogenic dipeptide substrate; higher = more effect of the substance
Set-up: species or system P. falciparum D10 trophozoite lysates; single well
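Further: 30 min substrate incubation versus DMSO and 10 µM JCP410 controls.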

Chain of DPAP1 (Q8IIJ9 whole entry, looked up): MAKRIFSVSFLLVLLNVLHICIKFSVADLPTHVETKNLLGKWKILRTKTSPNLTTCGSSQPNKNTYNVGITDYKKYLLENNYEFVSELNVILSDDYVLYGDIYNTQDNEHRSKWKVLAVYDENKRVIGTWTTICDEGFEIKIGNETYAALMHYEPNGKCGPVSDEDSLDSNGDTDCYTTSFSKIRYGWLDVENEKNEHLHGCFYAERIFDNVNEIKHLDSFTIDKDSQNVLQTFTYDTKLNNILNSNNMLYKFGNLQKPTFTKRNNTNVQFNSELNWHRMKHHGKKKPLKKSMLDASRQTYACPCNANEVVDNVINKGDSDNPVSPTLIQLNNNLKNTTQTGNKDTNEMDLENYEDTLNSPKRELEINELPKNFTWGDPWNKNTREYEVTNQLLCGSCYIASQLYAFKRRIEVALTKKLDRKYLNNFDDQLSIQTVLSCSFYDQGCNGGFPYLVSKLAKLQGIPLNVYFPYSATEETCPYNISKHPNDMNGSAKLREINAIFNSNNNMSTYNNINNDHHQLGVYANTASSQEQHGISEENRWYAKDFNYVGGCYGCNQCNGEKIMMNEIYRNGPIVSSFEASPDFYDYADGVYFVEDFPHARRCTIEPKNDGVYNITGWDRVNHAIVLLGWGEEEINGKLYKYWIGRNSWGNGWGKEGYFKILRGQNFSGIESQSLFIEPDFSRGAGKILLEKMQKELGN

Row | Compound | % Inhibition @ 10 uM [%]
1 | CCCC(O)(c1ccc(Cl)cc1)C(CN1CCOCC1)c1ccccc1 (stereo not shown) | -2.38
2 | COc1ccc(C(=O)Cn2c(-c3ccc(OC)cc3)c(-c3ccc(OC)cc3)oc2=O)cc1 | 14.5
3 | Cc1nc2nc(CN)nn2c(C)c1CCC(=O)NCc1ccccc1Cl | -0.447
4 | O=C(NCc1ccccn1)/C(=C/c1ccccc1Cl)c1ccccc1 | -3.14
5 | CCOc1ccc(-c2cc(OC)nc(N)n2)cc1 | 1.96
6 | COc1ccc2c(c1OC)C(=O)N(c1ccc(NC(C)=O)cc1)C2=O | 5.09
7 | c1ccc(-n2nnnc2CSc2nc[nH]n2)cc1 | -2.85
8 | Clc1cccc(N2CCN(CC3CC=CCC3)CC2)c1 (stereo not shown) | 4.51
9 | O=C(Nc1ccc(Cl)cn1)c1cccc(OCc2ccccc2)c1 | 15.9
10 | CC1(C)CCCC(CO)=C1CSc1ccccc1 | -2.8
11 | CCn1c(SCC(=O)Nc2ccccc2OC)nc2c1c(=O)n(C)c(=O)n2C | -7.4
12 | O=C(c1ccc(Cl)c([N+](=O)[O-])c1)N1CCCC1 | -0.0217
13 | Oc1ccccc1C1=NN2C(C1)c1ccccc1OC21CCCC1 (stereo not shown) | -5.36
14 | CCCC(=O)C1=C(NC)CC(c2ccccc2)CC1=O (stereo not shown) | -2.88
15 | Cc1ccnc2nc(NC(=O)c3ccc(C(C)(C)C)cc3)nn12 | -4.91
16 | O=c1c(O)c(Cl)cnn1-c1ccccc1 | 3.85
17 | CC(C)CC(C(=O)NC(C)c1ccccc1)N1C(=O)c2ccccc2C1=O (stereo not shown) | 4.01
18 | CCN(CC)S(=O)(=O)c1ccc(NC(=O)c2ccc(C)cc2)cc1 | -3.11
19 | CCCNC(=O)CS(=O)Cc1nc(-c2cccc(C)c2)oc1C (stereo not shown) | -1.05
20 | Nc1n[nH]c(SCC(=O)Nc2cccc(-c3nc4ccccc4s3)c2)n1 | -0.622
21 | CCN1CCN(CCCSC)CC1 | -4.98
22 | COc1cccc(C2C3=C(O)CC(C)(C)CC3=Nc3nc(-c4cccc(Cl)c4)nn32)c1OC (stereo not shown) | 0.275
23 | Cc1ccc(Nc2cc(O)nc(O)n2)cc1 | -4.75
24 | CC1(C)CC(=O)C2=C(C1)N(c1c(F)cccc1F)C(N)=C(C#N)C2c1cccnc1 (stereo not shown) | -2.68
25 | CCOC(=O)c1cc(-c2ccc(F)cc2)n(CCC(=O)NC(C)CC)c1C (stereo not shown) | 1.47
26 | COc1cccc(-c2cn3c(n2)sc2cc(C(=O)NC(C)C)ccc23)c1 | 1.64
27 | O=C(O)c1ccc(Oc2ccc([N+](=O)[O-])cc2)cc1C(=O)O | -0.128
28 | COc1ccc(NC(=O)/C(=C/c2ccc3c(c2)OCO3)NC(=O)c2ccc(OC)cc2)cc1 | -6.36
